# Experimental data reported in PubChem BioAssay AID588855 (National Center for Advancing Translational Sciences (NCATS), 2011).
# In all, about 410,000 compounds went through this assay and about 5,000 (1.2%) were called active. The inconclusive results got no clear call from the source; some entries with a clear call stand among them for comparison. Calls follow the shape of the dose curve; as a rule, active = well fitted inhibition curve with a large enough effect; inconclusive = small, poorly fitted or top-dose-only effect; inactive = no such curve, though single readings can be large or run the other way. A potency beside an inconclusive call is a rough fit, not a confirmed value.
# Test: qHTS for Inhibitors of TGF-b; also: nearly all actives have a fitted effect of over 65% in size
# Conditions: HepG2 CAGA-GFP TGF-b/SMAD3 reporter, GFP fluorescence, 18 h, TGF-beta stimulated, 500 pg/mL final; series mostly up to 46.1 µM
# Procedure, shortened: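 Per well, imaged GFP fluorescence of HEPG2 CAGA-GFP cells gives the signal; cells get compound, then TGF-beta (500 pg/mL final), 18 h at 37 degrees C; %Activity versus -TGF-beta and +DMSO controls.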
# Potency is read from the fitted curve at half-maximal effect; tags tell the direction and shape of the fitted curve.
row,Structure (SMILES),Potency
1,OCc1ccccc1SSc1ccccc1CO,"inconclusive: 35.5 µM [inhibitor, single point]"
2,COc1ccccc1NS(=O)(=O)c1ccc(NN=C2CCCC2)c([N+](=O)[O-])c1,"inconclusive: 25.1 µM [inhibitor, single point]"
3,CCOC(=O)C1=CCN(S(=O)(=O)c2ccccc2F)C1c1cccc(Cl)c1 (stereo not drawn),active: 11.2 µM
4,O=C(CNCc1ccc(Cl)cc1)Nc1cc(S(=O)(=O)N2CCCC2)ccc1Cl,"inconclusive: 6.31 µM [inhibitor, single point]"
5,CSCCOC(=O)c1[nH]c2c(c1C)C(=O)CC(c1ccco1)C2 (stereo not drawn),"inconclusive: 5.01 µM [inhibitor, partial curve]"
6,CC(=O)c1cccc(NS(=O)(=O)c2ccc(N/C=C\C(=O)c3ccc(F)cc3)cc2)c1,"inconclusive: 35.5 µM [inhibitor, single point]"
7,N=c1c2c(ncn1CCCO)Oc1c(ccc3ccccc13)C2c1ccccc1 (stereo not drawn),"inconclusive: 35.5 µM [inhibitor, single point]"
8,[O-][n+]1c(/C=C/c2ccccc2)ccc2ccccc21,"inconclusive: 5.01 µM [inhibitor, partial curve, poor fit]"
9,CN(Cc1ccc(Cl)c(Cl)c1)C(=O)CN1C(=O)NC2(CCCC2)C1=O,"inconclusive: 6.31 µM [inhibitor, single point]"
10,C=CC(=O)Nc1ccc(CN2C(=O)N(c3c(Cl)c(OC)cc(OC)c3Cl)Cc3cnc(NCCCCN(CC)CC)nc32)cc1,"inconclusive: 8.91 µM [inhibitor, partial curve, poor fit]"
11,CCC(=O)N(Cc1cc2ccccc2[nH]c1=O)C(C)C,"inconclusive: 3.98 µM [inhibitor, partial curve, poor fit]"
12,Cn1c(=O)c2c(nc(OC3CCCC3)n2C)n(C)c1=O,"inconclusive: 3.98 µM [inhibitor, single point]"
13,CCCSc1nnc2nc3c(nn12)c1ccccc1n3C,"inconclusive: 35.5 µM [inhibitor, single point]"
14,COc1cccc(C2C(C#N)=C(N)Oc3c2oc(CO)cc3=O)c1 (stereo not drawn),"inconclusive: 3.98 µM [inhibitor, single point]"
15,CCOC(=O)c1cccc(NS(=O)(=O)c2ccc(-c3cnc(C4CC4)o3)cc2)c1,"inconclusive: 35.5 µM [inhibitor, partial curve, poor fit]"
16,O=C1/C(=C/c2ccncc2)SC(=S)N1C1CCS(=O)(=O)C1 (stereo not drawn),"inconclusive: 14.1 µM [inhibitor, single point]"
17,COc1ccc2c(c1)Sc1ccccc1N2CCN(C)C,inactive
18,Cc1ccc(C)c(S(=O)(=O)N2CCN(CC(=O)Nc3ccc([N+](=O)[O-])cc3)CC2)c1,active: 8.91 µM
19,COc1ccc(Nc2ccc(S(=O)(=O)N3CCCCCC3)cc2[N+](=O)[O-])cc1,"inconclusive: 5.62 µM [inhibitor, full curve]"
20,CC1CCCCN1CCCNC(=O)c1ccc2c(c1)NC(=O)CN2C (stereo not drawn),inactive
21,COc1ccc(OC)c2[nH]c(=O)c(CCNC(=O)c3cc4ccccc4o3)cc12,inactive
22,Cc1[nH]n(-c2ccc(Br)cc2)c(=O)c1/C=N/NC(=O)c1ccccc1,active: 3.55 µM
23,CCOC(=O)C1=C(C)N(C[C@@H]2CC[C@@H](Cc3ccc(-c4ccccc4)cc3)O2)C(=O)NC1c1cccc([N+](=O)[O-])c1 (stereo partly drawn),inactive

row,Structure (SMILES),Potency
1,CCOC(=O)N1CCC(=NNS(=O)(=O)c2cccc([N+](=O)[O-])c2)CC1,"inconclusive: 0.112 µM [inhibitor, full curve, poor fit]"
2,CCOC(=O)C1CCCN(S(=O)(=O)CCNC(=O)c2ccc3c(c2)OCO3)C1 (stereo not drawn),inactive
3,Cc1ccc(C(=O)N2CCN(c3ccc(NC(=O)c4ccc(Br)o4)cc3)CC2)cc1,inactive
4,CCCCNC(=O)CCCn1c(=O)c2ccccc2n(Cc2cccc(Cl)c2)c1=O,"inconclusive: 11.2 µM [inhibitor, partial curve, poor fit]"
5,Cc1ccc(C(CC(=O)NCc2ccco2)c2ccc(OC(C)C)cc2)cc1 (stereo not drawn),inactive
6,O=C(Nc1ncc(Cc2ccc(C(F)(F)F)cc2)s1)c1ccc(-c2cccc([N+](=O)[O-])c2)o1,inactive
7,CCOc1ccc(Cl)cc1-c1cc(C(=O)Nc2ccc(Br)cc2)[nH]n1,"inconclusive: 35.5 µM [inhibitor, single point]"
8,CN(Cc1ccccc1)CC(O)COc1ccc(CNCc2nccn2C)cc1 (stereo not drawn),"inconclusive: 0.794 µM [inhibitor, full curve, poor fit]"
9,CCCCS(=O)(=O)Nc1ccc(C)cn1,"inconclusive: 7.08 µM [inhibitor, full curve]"
10,COc1ccccc1N1CCN(c2nnc(-c3ccc(F)cc3)c3ccccc23)CC1,inactive
11,CCc1ccccc1NC1c2ccccc2C(=O)N1c1cc(C)ccn1 (stereo not drawn),"inconclusive: 35.5 µM [inhibitor, single point]"
12,CC(Sc1nnc(CN2CCCC2)n1Cc1ccccc1)C(=O)Nc1ccc(F)c(F)c1F (stereo not drawn),inactive
13,Cc1ccc(-n2nc(CO)c(C(=O)NCc3cccnc3)n2)cc1,inactive
14,O=C(Nc1ncc(Cl)cc1Cl)c1c(F)cccc1Cl,"inconclusive: 20 µM [inhibitor, single point]"
15,O=C(C1CC1)N1CCC(c2nc(-c3ccc(S(=O)(=O)N4CCCC4)cc3)no2)CC1,"inconclusive: 35.5 µM [inhibitor, single point]"
16,COc1ccc(Cc2c(-c3ccc(F)cc3)nc3ccc(Cl)cn23)c(C)c1,"inconclusive: 5.01 µM [inhibitor, partial curve, poor fit]"
17,Clc1ccc(C(c2ccccc2)c2c[nH]c3ccccc23)s1 (stereo not drawn),"inconclusive: 31.6 µM [inhibitor, single point]"
18,COc1ccc(OC)c(CNC(=O)C2CCN(c3nc4ccccc4nc3C(F)(F)F)CC2)c1,inactive
19,Cc1ccc(C)n1-c1nnc(N2CCCC(C(=O)NCc3cccc(F)c3)C2)s1 (stereo not drawn),"inconclusive: 7.08 µM [inhibitor, partial curve]"
20,COc1ccc(S(=O)(=O)N2N=C(C)Oc3ccccc3C2=O)cc1,inactive
21,Cc1nn(CC(=O)N(C)C2CCS(=O)(=O)C2)c(C)c1S(=O)(=O)N(C)C (stereo not drawn),inactive
22,COc1cc(OC)cc(-c2cc3nc(C)c(CCC(=O)NCc4ccc(Cl)cc4)c(C)n3n2)c1,"inconclusive: 35.5 µM [inhibitor, single point]"
23,Nc1cc(=O)[nH]c(SCC(=O)Nc2cc(Cl)cc(Cl)c2)n1,"inconclusive: 7.94 µM [inhibitor, partial curve]"

row,Structure (SMILES),Potency
1,C(=C\c1nnc(-c2cccs2)o1)/c1ccccc1,"inconclusive: 1.26 µM [inhibitor, partial curve]"
2,CCN1/C(=C/C=C/C=C/C=C/c2sc3ccccc3[n+]2CC)Sc2ccccc21,"inconclusive: 14.1 µM [inhibitor, single point]"
3,CC1=C(C(=O)OCc2ccccc2)C(c2ccccc2[N+](=O)[O-])NC(=O)N1C (stereo not drawn),inactive
4,Cc1cnc(C(=O)OCC(=O)N2CC(C)CC(C)C2)cn1 (stereo not drawn),inactive
5,COc1ccccc1C(=O)Nc1nnc(-c2ccccc2)s1,"inconclusive: 15.8 µM [inhibitor, single point]"
6,COc1ccc(N(CC(=O)NC2CC3CCC2C3)S(=O)(=O)c2ccc(C)cc2)cc1 (stereo not drawn),inactive
7,Cc1ccc(OCC(=O)Nc2ccc(Cl)c(-c3nc4ncccc4o3)c2)c(C)c1,"inconclusive: 0.1 µM [inhibitor, full curve, poor fit]"
8,Cc1nnc(N/N=C/c2ccc(O)c([N+](=O)[O-])c2)[nH]c1=O,inactive
9,Cc1cccc(N(CC(=O)Nc2c(C)n(C)n(-c3ccccc3)c2=O)S(C)(=O)=O)c1C,active: 2.82 µM
10,O=C(N/N=C/c1ccc([N+](=O)[O-])o1)c1cn(-c2ccccc2)nc1-c1ccccc1,"inconclusive: 7.08 µM [inhibitor, partial curve, poor fit]"
11,CCc1nc2ccc(C(=O)Nc3ccc(NC(C)=O)cc3)cn2c1N(C)CCCc1ccccc1,"inconclusive: 17.8 µM [inhibitor, single point]"
12,COc1ccc(S(=O)(=O)N2CCN(C(=O)NCc3ccc(OC)c(OC)c3)CC2)cc1,"inconclusive: 2.51 µM [inhibitor, partial curve, poor fit]"
13,Cc1ccc(C2CN(C)C3(C(=O)Nc4ccccc43)C23COc2ccccc2C3=O)cc1 (stereo not drawn),"inconclusive: 22.4 µM [inhibitor, single point]"
14,Cc1cc2ncn(-c3ncnc4sc5c(c34)CCC(C)C5)c2cc1C (stereo not drawn),inactive
15,COc1ccc(/C=N/NC(=O)C2CCN(c3ncc(C(F)(F)F)cc3Cl)CC2)cc1,"inconclusive: 20 µM [inhibitor, single point]"
16,COc1ccc2c(c1)CC(C(=O)Nc1cc(Cl)ccc1C)CO2 (stereo not drawn),inactive
17,CCCn1c2ccccc2c2cnn(CC(=O)NCCCOC)c(=O)c21,inactive
18,COc1ccccc1Nc1nnc(SCC(=O)c2cc(C)n(CC3CCCO3)c2C)s1 (stereo not drawn),"inconclusive: 15.8 µM [inhibitor, single point]"
19,CC(=O)c1ccc(NC(=S)NCCc2ccccn2)cc1,inactive
20,CCOC(=O)c1ncccc1NC(=O)CC(=O)Nc1cccnc1C(=O)OCC,"inconclusive: 35.5 µM [inhibitor, single point]"
21,COc1ccc(-c2oc3ccccc3c2C(=O)OCc2ccc(O)cc2)cc1,"inconclusive: 31.6 µM [inhibitor, single point]"
22,O=C(COC(=O)/C=C/c1ccc(OC(F)F)cc1)NCCN1C(=O)CSC1=O,"inconclusive: 1.12 µM [inhibitor, full curve, poor fit]"
